# The whole screen tested about 110,000 compounds, of which about 230 (0.21%) showed an effect of 50% or more. The list shows a part of the results.
# Target: DPAP1 (Plasmodium falciparum, UniProt Q8IIJ9)
# Assay: primary screen, percent inhibition; read by cleavage of a fluorogenic dipeptide substrate; higher = more effect of the substance
# Design: species or system P. falciparum D10 trophozoite lysates; single well
# 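Also: 30 min substrate incubation versus DMSO and 10 µM JCP410 controls.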
# Chain of DPAP1 (Q8IIJ9 whole entry, looked up): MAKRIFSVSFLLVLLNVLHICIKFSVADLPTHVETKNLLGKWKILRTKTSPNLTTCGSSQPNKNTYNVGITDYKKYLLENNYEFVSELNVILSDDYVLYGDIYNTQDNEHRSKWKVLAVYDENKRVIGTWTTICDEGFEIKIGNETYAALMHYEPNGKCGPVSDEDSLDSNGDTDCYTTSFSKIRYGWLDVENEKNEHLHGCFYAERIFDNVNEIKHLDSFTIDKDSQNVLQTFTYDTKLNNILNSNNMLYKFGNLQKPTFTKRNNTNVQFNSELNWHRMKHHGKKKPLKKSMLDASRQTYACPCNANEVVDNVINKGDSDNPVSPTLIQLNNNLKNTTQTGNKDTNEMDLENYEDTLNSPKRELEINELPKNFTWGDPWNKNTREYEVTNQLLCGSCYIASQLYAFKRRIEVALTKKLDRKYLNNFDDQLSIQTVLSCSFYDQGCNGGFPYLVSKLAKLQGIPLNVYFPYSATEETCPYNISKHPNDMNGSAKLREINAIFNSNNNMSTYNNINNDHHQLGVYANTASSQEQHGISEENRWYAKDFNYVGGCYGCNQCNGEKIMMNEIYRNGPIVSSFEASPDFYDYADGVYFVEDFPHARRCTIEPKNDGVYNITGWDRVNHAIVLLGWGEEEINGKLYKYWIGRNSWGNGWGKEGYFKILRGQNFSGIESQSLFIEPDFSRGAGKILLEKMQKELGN
row,SMILES,% Inhibition @ 10 uM [%]
1,CC(C)(CO)NC12CC3CC(CC(C3)C1)C2,-5.01
2,CCOCCCNc1c(-c2ccccc2)nc2ccc(Br)cn12,-5.77
3,COc1ccc(N2CCN(Cc3ccc(-c4ccccc4)cc3)CC2)cc1,-6.36
4,CCCO/C(O)=C1\C(C)=NC2=C(C(=O)CC(C)(C)C2)C1c1cccc(Cl)c1 (centres unmarked),-5.44
5,Cc1ccc(NC(=O)COc2ccccc2)c(C)c1,3
6,Cc1sc(NC(=O)c2cc(Cl)ccc2Cl)c(C#N)c1C,9.68
7,O=C(O)c1cc2ccc3cccnc3c2[nH]1,1.9
8,O=C(O)CCNC(=O)/C(=C\c1ccccc1)NC(=O)c1ccccc1,-5.59
9,Cc1ccc(OCC(=O)Nc2ccccc2O)cc1,-4.63
10,Cc1cc(C)c2nc3nc(C)cc(C)c3c(N)c2c1,6.74
11,CCCCCCSc1nc2c(c(=O)[nH]c(=O)n2C)n1C(C)C,-4.48
12,COCCCN1C(=O)S/C(=C/c2cc(C)n(-c3ccc4c(c3)OCO4)c2C)C1=O,4.03
13,Cc1cccn2c(=O)c3cc(C(=O)NCCC(C)C)n(C)c3nc12,0.583
14,CCOC(=O)c1c(NC(=O)COc2ccccc2C)sc2c1CCC2,21.4
15,CC(Oc1ccccc1)C(=O)Nc1ccc(NC(=O)C(C)Oc2ccccc2)cc1 (centres unmarked),4.31
16,COc1ccc(S(=O)(=O)Nc2ccccc2C(=O)N2CCCC2)c(Cl)c1Cl,-0.519
17,COc1nc(NC23CC4CC(CC(C4)C2)C3)nc(OC)n1,2.58
18,Cc1ccc(OCC(=O)Nc2ccc(S(=O)(=O)N3CCCCCC3)cc2)c(Br)c1,-4.02
19,O=C(CSc1ccccn1)Nc1ncc(Br)cc1Br,4.42
20,N=C(NOC(=O)c1ccc(Br)o1)c1cccnc1,3.87
21,COc1ccc(CCNC(=O)[C@@H]2C[C@H]2c2ccccc2)cc1OC,3.29
22,Cc1ccc(CSc2nc(O)c3c(n2)NC(=O)CC3c2cccc(O)c2)cc1 (centres unmarked),6.89
23,COc1ccc(-c2csc(/C(C#N)=C\Nc3ccc(C)cc3)n2)cc1,2.01
24,CCN(CC)c1ccc(C2NC(=O)NC(O)(C(F)(F)F)C2C(=O)c2ccccc2)cc1 (centres unmarked),8.18
25,Cc1nc(NC(=O)c2ccccc2Cl)ccc1Br,-2.67
26,Cc1cccc(-n2cnc3cc(C(=O)NCCc4ccccc4)ccc32)c1,1.42
27,CCOc1ccc(Br)cc1C(=O)N1CCCCC1,-3.83
28,O=c1cc(CSc2nc(O)c3c(n2)CCC3)nc2ccccn12,-2.92
29,COc1cc2c(cc1OC)C(COc1ccccc1OC)N(C(=O)COc1ccccc1)CC2 (centres unmarked),3.83

# From paper PMC6919601, “Identification of Plasmodium dipeptidyl aminopeptidase allosteric inhibitors by high throughput screening” (PLoS ONE, 2019)
